Out of some 310,000 compounds screened, about 14,000 (4.5%) showed an effect of 50% or more. Effects have a minus sign here. Some of the results follow.
Target: human ether-à-go-go-related gene (hERG) potassium channel (human, UniProt Q12809)
Test: primary screen, population patch clamp on CHO cells stably expressing hERG
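Note: peak tail current of the secondary pulse compared with the same well before compound.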

Chain of human ether-à-go-go-related gene (hERG) potassium channel (Q12809 whole entry, looked up): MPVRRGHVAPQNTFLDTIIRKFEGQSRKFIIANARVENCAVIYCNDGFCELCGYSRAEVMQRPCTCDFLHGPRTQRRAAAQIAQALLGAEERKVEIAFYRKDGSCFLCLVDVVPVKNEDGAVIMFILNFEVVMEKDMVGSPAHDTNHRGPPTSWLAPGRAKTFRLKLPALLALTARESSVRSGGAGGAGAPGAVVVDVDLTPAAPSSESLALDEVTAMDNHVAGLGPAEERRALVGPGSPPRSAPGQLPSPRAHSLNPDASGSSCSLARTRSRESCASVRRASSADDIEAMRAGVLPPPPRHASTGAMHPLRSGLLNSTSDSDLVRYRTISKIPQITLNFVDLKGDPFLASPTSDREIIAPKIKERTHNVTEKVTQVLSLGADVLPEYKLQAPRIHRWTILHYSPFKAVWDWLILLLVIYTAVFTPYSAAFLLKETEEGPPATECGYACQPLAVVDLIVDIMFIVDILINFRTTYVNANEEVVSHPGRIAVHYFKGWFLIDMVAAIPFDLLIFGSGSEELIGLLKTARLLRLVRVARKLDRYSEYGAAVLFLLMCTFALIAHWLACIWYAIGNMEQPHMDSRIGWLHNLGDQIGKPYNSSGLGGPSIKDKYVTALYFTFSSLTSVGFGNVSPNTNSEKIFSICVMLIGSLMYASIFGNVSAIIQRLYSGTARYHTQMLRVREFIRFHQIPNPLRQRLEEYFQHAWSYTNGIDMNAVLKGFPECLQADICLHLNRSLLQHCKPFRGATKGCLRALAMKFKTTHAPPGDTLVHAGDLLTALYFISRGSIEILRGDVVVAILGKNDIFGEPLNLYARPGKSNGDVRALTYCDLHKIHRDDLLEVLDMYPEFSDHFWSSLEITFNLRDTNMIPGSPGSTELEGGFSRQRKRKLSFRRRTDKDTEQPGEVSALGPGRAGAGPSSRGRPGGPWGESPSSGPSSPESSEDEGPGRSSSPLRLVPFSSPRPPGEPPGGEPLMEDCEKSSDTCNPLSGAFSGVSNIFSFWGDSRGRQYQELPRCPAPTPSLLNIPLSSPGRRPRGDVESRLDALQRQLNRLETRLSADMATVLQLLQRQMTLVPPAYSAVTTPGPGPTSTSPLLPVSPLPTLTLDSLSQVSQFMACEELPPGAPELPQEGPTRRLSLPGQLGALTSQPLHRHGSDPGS

Q: Which “hERG current change (%, negative = inhibition) at 10uM” value does the source give for `c1ccc(CCc2nn3c(C4COc5ccccc5O4)nnc3s2)cc1` (stereo not drawn) here?
A: -1.79%

Q: With `Cc1nc2cc(NS(=O)(=O)c3c(C)c(C)cc(C)c3C)ccc2s1` as the compound, how does the “hERG current change (%, negative = inhibition) at 10uM” value read?
A: 3.47%

Q: How did the “hERG current change (%, negative = inhibition) at 10uM” value turn out when `Cc1ccc(Nc2nc(C(=O)NCC3CCCO3)cs2)cc1` (stereo not drawn) was run?
A: -6.3%

Q: Which “hERG current change (%, negative = inhibition) at 10uM” value does the source give for `COc1ccccc1CNC(=O)CN(c1ccc(C)cc1)S(=O)(=O)c1c(C)nn(C)c1C` here?
A: -24.1%

Q: `S=c1nc(C23CC4CC(CC(C4)C2)C3)[nH][nH]1` was tested. Which “hERG current change (%, negative = inhibition) at 10uM” value did it give?
A: 11.8%

Q: For `COC(CC(=O)NNC(=S)Nc1ccccc1)OC`, which “hERG current change (%, negative = inhibition) at 10uM” value is on record?
A: 7.09%

Q: With `CCc1ccc(C(=O)CSc2ncn[nH]2)cc1` as the compound, how does the “hERG current change (%, negative = inhibition) at 10uM” value read?
A: -18.7%

Q: How did the “hERG current change (%, negative = inhibition) at 10uM” value turn out when `COc1ccc2cc(Br)ccc2c1CC(=O)N(C)C` was run?
A: 10.7%

Q: `CCCS(=O)(=O)c1c(S(=O)(=O)CCC)c2c(C(N)=O)cccn2c1C(=O)c1ccc(F)cc1` was tested. Which “hERG current change (%, negative = inhibition) at 10uM” value did it give?
A: 5.3%

Q: How did the “hERG current change (%, negative = inhibition) at 10uM” value turn out when `COc1ccc(S(=O)(=O)Nc2c(F)cccc2F)cc1` was run?
A: 0.21%

Q: How did the “hERG current change (%, negative = inhibition) at 10uM” value turn out when `CC(C)(C)n1cc(C(=O)c2ccccc2OCCCF)cn1` was run?
A: 3.75%

Q: Which “hERG current change (%, negative = inhibition) at 10uM” value does the source give for `O=C(COc1cccc(Cl)c1)NCC(c1cccs1)N1CCOCC1` (stereo not drawn) here?
A: -9.84%

Q: Which “hERG current change (%, negative = inhibition) at 10uM” value does the source give for `CC1CCCN(S(=O)(=O)c2ccc(-c3ccc(=O)[nH]n3)o2)C1` (stereo not drawn) here?
A: 11.2%

Q: `CCOc1cc(NC(=S)Nc2cccc(OC)c2)c(OCC)cc1NC(=O)C(C)C` was tested. Which “hERG current change (%, negative = inhibition) at 10uM” value did it give?
A: 1.89%

Q: `COc1ccccc1CNCc1cc(Br)ccc1OC.O=C(O)C(=O)O` was tested. Which “hERG current change (%, negative = inhibition) at 10uM” value did it give?
A: -37.1%

Q: With `Cc1ccc(CNC(=O)CN2C(=O)NC3(CC(C)CC(C)(C)C3)C2=O)cc1` (stereo not drawn) as the compound, how does the “hERG current change (%, negative = inhibition) at 10uM” value read?
A: -3.14%

Q: For `COc1ccc(CCNC(=O)c2ccc3c(c2)N(Cc2ccccc2)CCS3)cc1OC`, which “hERG current change (%, negative = inhibition) at 10uM” value is on record?
A: 17.1%

Q: For `O=C(COC(=O)CCSc1ccc(Cl)cc1)NCc1ccccc1`, which “hERG current change (%, negative = inhibition) at 10uM” value is on record?
A: 1.06%

Q: Which “hERG current change (%, negative = inhibition) at 10uM” value does the source give for `O=C(O)c1ccc(/C=C/c2nc3sc4c(c3c(=O)[nH]2)CCC4)cc1` here?
A: 14.2%

Q: Which “hERG current change (%, negative = inhibition) at 10uM” value does the source give for `Cc1ccc2[nH]cc(S(=O)(=O)c3ccc(F)cc3)c(=O)c2c1` here?
A: 15.7%

Q: With `Cc1ccccc1CC1(CO)CCCN(Cc2c(C)nn(C)c2Cl)C1` (stereo not drawn) as the compound, how does the “hERG current change (%, negative = inhibition) at 10uM” value read?
A: -47.2%

Q: With `CCCCCCCCCCOC(=O)C[N+](C)(C)C/C=C(/C)Cl.[Br-]` as the compound, how does the “hERG current change (%, negative = inhibition) at 10uM” value read?
A: -33.7%

Q: `COc1ccc(S(=O)(=O)NC(C(=O)NCCc2ccccn2)C(C)C)cc1` (stereo not drawn) was tested. Which “hERG current change (%, negative = inhibition) at 10uM” value did it give?
A: 5.69%

Q: `CC1(C)CC(NS(=O)(=O)OCC(Cl)(Cl)Cl)c2cc(C#N)ccc2O1` (stereo not drawn) was tested. Which “hERG current change (%, negative = inhibition) at 10uM” value did it give?
A: 17.6%

Q: With `CC(C)CNC(=O)c1ccccc1-c1ccccc1C(=O)O` as the compound, how does the “hERG current change (%, negative = inhibition) at 10uM” value read?
A: 19.5%

Q: With `CN(C)Cc1c(C(=O)N/N=C/c2ccc(-c3ccccc3)cc2)nnn1-c1nonc1N` as the compound, how does the “hERG current change (%, negative = inhibition) at 10uM” value read?
A: -1.78%

Q: How did the “hERG current change (%, negative = inhibition) at 10uM” value turn out when `O=C(c1cccc(S(=O)(=O)N2CCCCCC2)c1)N1CCN(c2ccccc2F)CC1` was run?
A: -58%

Q: Which “hERG current change (%, negative = inhibition) at 10uM” value does the source give for `C=CCn1c(CCC(O)COCCC)n[nH]c1=S` (stereo not drawn) here?
A: 14.2%

Q: For `CC1CCN(Cc2csc(N)n2)CC1`, which “hERG current change (%, negative = inhibition) at 10uM” value is on record?
A: -1.14%

Q: With `CCCCC(=O)Nc1cccc(NC(=S)NC(=O)Cc2ccccc2)c1` as the compound, how does the “hERG current change (%, negative = inhibition) at 10uM” value read?
A: 3.39%

Q: With `O=C(Nc1ccc2c(c1)OCO2)C1(S(=O)(=O)c2ccc(Cl)cc2)CC1` as the compound, how does the “hERG current change (%, negative = inhibition) at 10uM” value read?
A: -26.9%

Q: With `CC(C)NC(=S)NN=C1CCCCCCCCCCC1` as the compound, how does the “hERG current change (%, negative = inhibition) at 10uM” value read?
A: 7.36%

Q: Which “hERG current change (%, negative = inhibition) at 10uM” value does the source give for `O=c1[nH]c(=O)n(Cc2ccccc2)c(O)c1C=NCCN1CCOCC1` here?
A: 7.22%

Q: For `CC(=O)N1CCCc2cc(S(=O)(=O)CCC(=O)N3CCN(c4ccccc4)CC3)ccc21`, which “hERG current change (%, negative = inhibition) at 10uM” value is on record?
A: 5.9%

Q: With `ON1C(c2ccccc2C(F)(F)F)N(O)[C@H]2CCCC[C@H]21` (stereo partly drawn) as the compound, how does the “hERG current change (%, negative = inhibition) at 10uM” value read?
A: 11.8%

Q: For `Cc1cccc(C)c1NC(=O)CSC(=S)N1CCCC1`, which “hERG current change (%, negative = inhibition) at 10uM” value is on record?
A: 6.66%

Q: With `Brc1ccccc1CN1CCN(Cc2c[nH]c3ccccc23)CC1.O=C(O)C(=O)O` as the compound, how does the “hERG current change (%, negative = inhibition) at 10uM” value read?
A: -20.1%

Q: For `Cc1cc(C)nc(SCc2nnc(SCc3ccccc3Cl)o2)n1`, which “hERG current change (%, negative = inhibition) at 10uM” value is on record?
A: -24.6%

Q: Which “hERG current change (%, negative = inhibition) at 10uM” value does the source give for `CCO[C@@H]1OC(C(N)=O)=C[C@H](c2ccc3c(c2)OCO3)[C@H]1CCCO` here?
A: 4.15%

Q: With `CC(=O)c1ccc(N2CCN(C(=S)NCCCN(C)C)CC2)cc1` as the compound, how does the “hERG current change (%, negative = inhibition) at 10uM” value read?
A: 2.47%

Q: Which “hERG current change (%, negative = inhibition) at 10uM” value does the source give for `CCNC(=O)CSc1nc(-c2ccccc2)cs1` here?
A: -4.81%

Q: How did the “hERG current change (%, negative = inhibition) at 10uM” value turn out when `CCn1nc(C)c(/C=N/NC(=O)Cn2cncn2)c1C` was run?
A: 17.4%

Q: How did the “hERG current change (%, negative = inhibition) at 10uM” value turn out when `CCOc1ccc(NC(=O)CC2C(=O)Nc3ccccc3N2C(=O)c2ccccc2)cc1` (stereo not drawn) was run?
A: -8.85%

Q: Which “hERG current change (%, negative = inhibition) at 10uM” value does the source give for `COc1ccc(C(=O)NCC2OCCc3ccccc32)c(O)c1` (stereo not drawn) here?
A: 12.4%

Q: Which “hERG current change (%, negative = inhibition) at 10uM” value does the source give for `Cc1ccc2c(C)c(C(=O)N(C)C(C)c3ccon3)oc2c1C` (stereo not drawn) here?
A: -19.5%
